Measurements: the supplement of paper PMC3334620
Over roughly 33,000 sequences, “E-score (-0.5 to 0.5)” has its median near -0.036; the highest 2% begin near 0.37. This is one part of the list.

biological target: T1, Yer064c (UniProt P40041); assay: PBM E-score (8-mer binding enrichment) (E-score (-0.5 to 0.5)); higher = stronger / more preferred TF binding; most listed sequences are background and not binding sites; conditions: protein concentration: 200 nM; construct: GST-full length
T1 sequence: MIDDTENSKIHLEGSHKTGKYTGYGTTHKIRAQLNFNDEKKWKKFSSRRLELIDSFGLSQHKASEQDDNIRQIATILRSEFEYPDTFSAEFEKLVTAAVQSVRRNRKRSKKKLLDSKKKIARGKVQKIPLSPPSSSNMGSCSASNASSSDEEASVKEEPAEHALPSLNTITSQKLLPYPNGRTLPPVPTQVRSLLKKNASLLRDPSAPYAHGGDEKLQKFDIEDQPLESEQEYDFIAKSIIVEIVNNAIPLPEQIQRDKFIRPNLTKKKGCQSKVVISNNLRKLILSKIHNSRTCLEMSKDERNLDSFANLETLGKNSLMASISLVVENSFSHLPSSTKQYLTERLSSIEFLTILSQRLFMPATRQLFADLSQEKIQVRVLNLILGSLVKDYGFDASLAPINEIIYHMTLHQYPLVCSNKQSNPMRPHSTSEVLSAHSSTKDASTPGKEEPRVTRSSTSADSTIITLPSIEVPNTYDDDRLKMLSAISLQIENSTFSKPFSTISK
Method in brief: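 Yeast transcription factors, full-length or as DNA-binding domains, were expressed with a GST tag using PURExpress in vitro transcription/translation. At about 100-200 nM they were applied to universal all-10-mer Agilent arrays, double-stranded by primer extension on fresh or once-stripped slides. Fluorescent anti-GST detected bound protein, and masliner normalised the scans. E-scores for ungapped eight-base words, pooled with reverse complements, came from the Universal PBM Analysis Suite.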

Sequence | PBM E-score
GAGACGGC | -0.0746
CGGCACCA | -0.195
AACTAATC | 0.15
GATTAAGA | 0.35
GGATCAGA | -0.0744
AATACCAA | -0.0127
CATGCCAC | -0.122
AACAAGAG | -0.0406
CTTTCACA | 0.0349
AAAATTAA | 0.0275
GCGGCCTA | -0.192
CTACTCAG | 0.132
CTAAGGGA | -0.0913
TACGTGAA | -0.00788
AATGCCTG | -0.22
AGCGGTCC | -0.11
TATCGCCA | -0.051
CATCACAA | -0.0486
CCCGACGG | -0.172
ATAAGTTC | 0.0221
ACAAGTCT | 0.0793
TATCGACA | -0.0727
GAACTACA | -0.0403
GTGATCCA | 0.014
AGACATAT | 0.137

Sequence | PBM E-score
CACTCGTC | 0.0587
AAAGCCGG | -0.189
CGACATCA | -0.217
AGCGGCGC | -0.287
AGATAGTA | 0.177
GGGAGCCA | -0.00881
GCCCTTAA | -0.185
GAAGGGTC | -0.13
CATAATAG | 0.00036
CGGGCAAC | -0.115
GTACCACA | 0.0546
CCATATCA | -0.0803
CGACCCGC | -0.12
AGCTTCAT | -0.0042
GTTTTTTA | 0.0743
ACGCCTGG | -0.0916
GCTTCTCA | -0.0992
CCGGTAGG | -0.102
AACTACTC | 0.199
CCTCGGGA | -0.063
AGTCTTTC | 0.372
CACTCGGC | 0.00226
ATGCACCA | -0.193
AACTTTAC | -0.0347
AAGCGAAT | -0.0164

Sequence | PBM E-score
CGCGTCCA | -0.166
GGATACCC | -0.0132
CGCCTTTC | -0.222
ATAAATGA | 0.308
TAATTGAA | 0.204
GATCCCGC | -0.222
CGAGATCG | 0.0241
AATCCCAT | -0.18
AGACGAAA | -0.0295
CCAGCGCC | -0.274
CCGAGTCC | 0.195
AAGATGCA | -0.0244
AAGGTCGA | -0.0769
GGTAGTAA | 0.0578
GGTCGAAC | -0.00263
AGATTGCG | 0.0137
GCGCGCTA | -0.194
GTATCTCA | 0.223
CACCGTCA | 0.0302
CTGGGAAA | -0.133
AGTCATAA | 0.476
AATCAGAC | 0.34
CAGAGCTG | -0.065
TCATCTAA | 0.319
AGATGACA | 0.116

Sequence | PBM E-score
GGAGAAAA | -0.177
TATCCGGA | -0.12
CCACAACG | 0.0189
GCCATGCA | -0.128
ATTCTTTA | 0.192
CCGGGGCG | -0.174
CAATCGTG | 0.0936
CATCCACG | 0.0743
GCCGTAAA | -0.0829
ACTAGTTA | 0.229
ACGGAACG | -0.0653
CCTAATAC | 0.0357
GTCTAGTA | 0.0336
ATGGCTGC | -0.0318
TCAGAAGA | 0.153
CTTATAAA | 0.163
CGCAAACA | 0.0747
CAAATAGC | -0.118
CTCCTGTA | 0.0484
CAGTGGCC | -0.158
CCCCTTGC | -0.252
ACGACCGC | -0.242
AAGATCAA | 0.0843
GACACTAA | -0.0431
CCGACTAA | 0.358

Sequence | PBM E-score
ATCTATGC | -0.268
TCTCGTCA | 0.046
GATCTCAC | -0.0301
AATTAATC | 0.35
GTTGCAAA | -0.00101
AATAGCCA | 0.184
CTCCGCGC | -0.0845
AGGGTCTC | -0.244
CTGCATGC | -0.075
AGTGCCTC | -0.0945
CGCGATAG | -0.0145
ATCGTACG | 0.0461
AACAGCCC | -0.254
GAGAACTC | 0.0416
AAACGCAC | -0.113
CCCAGGTA | -0.183
CAATGGGC | -0.124
CCCCTCGA | -0.276
GCTTATAC | -0.0573
TCTGGAAA | 0.139
AGAGAGTA | 0.121
GAGGCAAC | -0.113
ACGTCCAA | -0.118
GTTGGTAA | 0.104
AAGGGATG | -0.176

Sequence | PBM E-score
CGCTGCTA | -0.211
TCCACCGA | -0.0767
CGTGGAGA | -0.0815
ATGAGCGG | -0.0995
ACGATTCG | 0.0252
GGCTTAAC | 0.0718
TACTGCTA | -0.316
AGGGCCCT | -0.377
AAACACAT | 0.156
ATCTGCTC | 0.0277
AAATGACT | 0.475
GCAGGTTA | -0.188
ACTGCGGG | 0.0712
ATCAGACG | -0.0527
ATCCTCGG | -0.155
AGTCGTAC | 0.399
AGAATAGC | -0.067
TGGAGCAA | -0.00037
CCCAATAA | -0.0789
ACGAGGGG | -0.274
GCGTTGAC | 0.133
AGCCATTG | 0.247
AAAGTCAT | 0.455
AGGACTAA | 0.405
CACGAGGG | -0.294

Sequence | PBM E-score
AATGTGAC | 0.203
GAGCGGAA | 0.0206
AGATCCAC | -0.0378
ACAGGTAG | -0.24
AGCAAGGA | -0.0126
CGTGTGCA | -0.113
AAACGCGC | -0.241
CAAGTGGG | -0.0535
CACCCGTC | -0.0917
AAGTGTAA | 0.0413
ACTCACTG | 0.374
CAACGGCC | -0.172
AACAACAA | 0.158
CAATGCGA | -0.0146
CGCCCAAC | -0.194
ACCGCTGG | -0.264
AGGGACAG | -0.198
TCATTGCA | 0.0764
AGAGTAAT | 0.15
GAACTCGC | 0.143
TCTCAACA | 0.107
CCCGCGCC | -0.251
